The text below walks through data of patent publication US6147202, “Production of human hemoglobin in transgenic pigs” (dated 2000).

In the assay the target is pig beta globin (pig, UniProt P02067). Nature of the assay: reassociation of dissociated globin chains from pig and human hemolysate, isoelectric focusing. How it is done:
Reassociation of globin chains was performed essentially as described in Methods in Enzymol. 76:126–133. 25 lambda of pig blood, 25 lambda of human blood, or a 25 lambda mixture of 12.5 lambda human blood and 12.5 lambda pig blood were treated as follows. The blood was pelleted at a setting of 5 on microfuge for 2 minutes, then washed three times with 100 lambda 0.9 percent NaCl. The cells were lysed with 50 lambda H_2O, then spun at high speed to confirm lysis. 50 lambda of the lysed cells was then combined with 50 lambda 0.2 M Na Acetate, pH 4.5, put on ice and then incubated in a cold room overnight. After adding 1.9 ml 0.1 M NaH_2PO_44, pH 7.4 each sample was spun in centricon tubes at 4° C. and 5 K until about 0.5 ml remained. Then 1 ml of 0.1 M NaH_2PO_4 pH 7.4 was added and spun through at about 5 K until about 0.2 ml volume was left. The hemoglobin was then washed from the walls of the centricon tube, an eppendorf adaptor was attached, and a table top microfuge was used to remove each sample from its centricon tube. The samples were then analyzed by isoelectric focusing.
It was possible, however, that this observation could be explained by relatively low levels of human beta globin expression. Alternatively, association between pig alpha globin and human beta globin may be chemically unfavorable. […]

B1: pig alpha globin (other)
chain: VLSAADKANVKAAWGKVGGQAGAHGAEALERMFLGFPTTKTYFPHFNLSHGSDQVKAHGQKVADALTKAVGHLDDLPGALSALSDLHAHKLRVDPVNFKLLSHCLLVTLAAHHPDDFNPSVHASLDKFLANVSTVLTSKYR
On to B1, for which the binding result is reported as “binds”.

B2: human alpha globin (other)
chain: VLSPADKTNVKAAWGKVGAHAGEYGAEALERMFLSFPTTKTYFPHFDLSHGSAQVKGHGKKVADALTNAVAHVDDMPNALSALSDLHAHKLRVDPVNFKLLSHCLLVTLAAHLPAEFTPAVHASLDKFLASVSTVLTSKYR
For B2, the binding result was “binds”.
